Measurements taken from the RNAGym collection of RNA variant scans (doi:10.1101/gad.245936.114).
Variants at the floor of the assay are shown more often than the library holds them.

B1: tRNA (parent)
chain: CUCUCGGUAGCCAAGUUGGUUUAAGGCGCAAGACUUUAAUUUAUCACUACGAAAUCUUGAGAUCGGGCGUUCGACUCGCCCCCGGGAGAUUUUUUCCUCGAGCAA

Variants of: B1
Assay: nonsense suppression (GFP-seq) (ratio to wild type); higher = more function; SUP4oc tRNA, yeast GFP reporter sort-seq
How it was run: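 Yeast carrying genome-integrated SUP4oc tRNA variants from a library with ~3% random mutations were grown in raffinose/galactose medium with 80 mg/L adenine. Each strain also carried a galactose-driven GFP ochre reporter and RFP. Cells were sorted into GFP/RFP bins, and each bin was Illumina-sequenced (phred ≥30). Nonsense suppression (GFPSEQ) is the bin median GFP/RFP, weighted by each variant's estimated cell share per bin, relative to wild-type SUP4oc; variants needed ≥100 reads and ≥30 cells.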

Nonsense suppression, ≤ 0.026:
CUCUCGGUAGCCAAGUUGGUUUAAGGCGCAAGACUUUAAUUUAUCACUACGAAAUCUUGAGAUCUGGCGUGCGACUCGCCCCCAGGAGAUUUUUUCCUCGAGCAA [G65U U71G G84A]
CUCUCGGUAGCCAAGUUGGUUUAAGGCGCAAGACUUUAAUUUAUCACUACGAAAUCUUGAGAUCGAGCGAUCGACUCGCCCCCGGGAGAUUUUUUCCUCGAGCAA [G66A U70A]
CUCUCGGUAGCCAAGUUGGUUUAAGGCGCAAGACUUUAAUUUAUCACUACGAAAUCUUGAGAUCGAGCGUUCGACAAGCCCCCGGGAGAUUUUUUCCUCGAGCAA [G66A U76A C77A]
CUCUCGGUAGCCAAGUUGGUUUAAGGCGCAAGACUUUAAUUUAUCACUACGAAAUCUUGAGAUCCGGCGUUCGACUCGCCCCGGGGAGAUUUUUUCCUCGAGCAA [G65C C83G]
CUCUCGGUAGCCAAGUUGGUUUAAGGCGCAAGACUUUAAUUUAUCACUACGAAAUCUUGAGAUCGAGCGUUCUGCUCGCCCCCGGUAGAUUUUUUCCUCGAGCAA [G66A G73U A74G G86U]
CUCUCGGUAGCCAAGUUGGUUUAAGGCGCAAGACUUUAAUUUAUCACUACGAAAUCUUGAGAUCUGACGUUCGACUCGCCCCCGGGAGAUUUUUUCCUCGAGCAA [G65U G67A]
CUCUCGGUAGCCAAGUUGGUUUAAGGCGCAAGACUUUAAUUUAUCACUACGAAAUCUUGAGAUCGAGCGUUCGACUCGCCCCCUGGAGAUUUUUUCCUCGAGCAA [G66A G84U]
CUCUCGGUAGCCAAGUUGGUUUAAGGCGCAAGACUUUAAUUUAUCACUACGAAAUCUUGAGAUCUCGCGUUCGACUCGCCCCCGGGAGAUUUUUUCCUCGAGCAA [G65U G66C]
CUCUCGGUAGCCAAGUUGGUUUAAGGCGCAAGACUUUAAUUUAUCACUACGAAAUCUUGAGAUCCGGCGUUCUACUCGCCACCGGGAGAUUUUUUCCUCGAGCAA [G65C G73U C81A]
CUCUCGGUAGCCAAGUUGGUUUAAGGCGCAAGACUUUAAUUUAUCACUACGAAAUCUUGAGAUCAGGCGGUCGACUCGCCCCCUGGAGAUUUUUUCCUCGAGCAA [G65A U70G G84U]
CUCUCGGUAGCCAAGUUGGUUUAAGGCGCAAGACUUUAAUUUAUCACUACGAAAUCUUGAGAUCGAGCGUUCGACCCGCCCCCGGGAGAUUUUUUCCUCGAGCAA [G66A U76C]
CUCUCGGUAGCCAAGUUGGUUUAAGGCGCAAGACUUUAAUUUAUCACUACGAAAUCUUGAGAUCUGGCGUUCGACUCGCCCCCGAGAGAUUUUUUCCUCGAGCAA [G65U G85A]
CUCUCGGUAGCCAAGUUGGUUUAAGGCGCAAGACUUUAAUUUAUCACUACGAAAUCUUGAGAUCCGGCAUUCGACUCGCCCCCGGGAGAUUUUUUCCUCGAGCAA [G65C G69A]
CUCUCGGUAGCCAAGUUGGUUUAAGGCGCAAGACUUUAAUUUAUCACUACGAAAUCUUGAGAUCUGGCGUUCGACUCGCCCCCGGAAGAUUUUUUCCUCGAGCAA [G65U G86A]
CUCUCGGUAGCCAAGUUGGUUUAAGGCGCAAGACUUUAAUUUAUCACUACGAAAUCUUGAGAUCCAGCGUUUGGGUCGCCCCCGGGAGAUUUUUUCCUCGAGCAA [G65C G66A C72U A74G C75G]
CUCUCGGUAGCCAAGUUGGUUUAAGGCGCAAGACUUUAAUUUAUCACUACGAAAUCUUGAGAUCGAGCGUUCGACUCGCCCCCGGCAAAUUUUUUCCUCGAGCAA [G66A G86C G88A]
CUCUCGGUAGCCAAGUUGGUUUAAGGCGCAAGACUUUAAUUUAUCACUACGAAAUCUUGAGAUCCGGCGUUCGACUCGCGCCCGGGAGAUUUUUUCCUCGAGCAA [G65C C80G]
CUCUCGGUAGCCAAGUUGGUUUAAGGCGCAAGACUUUAAUUUAUCACUACGAAAUCUUGAGAUCUGGCGCUCGACUCACCCCCGGGAGAUUUUUUCCUCGAGCAA [G65U U70C G78A]
CUCUCGGUAGCCAAGUUGGUUUAAGGCGCAAGACUUUAAUUUAUCACUACGAAAUCUUGAGAUCUGGCGUUCGACUCGCCCUCGGGAGAUUUUUUCCUCGAGCAA [G65U C82U]
CUCUCGGUAGCCAAGUUGGUUUAAGGCGCAAGACUUUAAUUUAUCACUACGAAAUCUUGAGAUCGAGAGUUCGACUCGCCCCCGGGAGAUUUUUUCCUCGAGCAA [G66A C68A]
CUCUCGGUAGCCAAGUUGGUUUAAGGCGCAAGACUUUAAUUUAUCACUACGAAAUCUUGAGAUCGAGAGUUCUACUCGCCCCCGGGCGAUUUUUUCCUCGAGCAA [G66A C68A G73U A87C]
CUCUCGGUAGCCAAGUUGGUUUAAGGCGCAAGACUUUAAUUUAUCACUACGAAAUCUUGAGAUCCGGCGUUCGACUCGUCCCCGGGAGAUUUUUUCCUCGAGCAA [G65C C79U]
CUCUCGGUAGCCAAGUUGGUUUAAGGCGCAAGACUUUAAUUUAUCACUACGAAAUCUUGAGAUCCGGCGUACGACUCGCCCCCGGGAGAUUUUUUCCUCGAGCAA [G65C U71A]
CUCUCGGUAGCCAAGUUGGUUUAAGGCGCAAGACUUUAAUUUAUCACUACGAAAUCUUGAGAUCCGGCGUUCCAAUCGCCCCCGGGAGAUUUUUUCCUCGAGCAA [G65C G73C C75A]
CUCUCGGUAGCCAAGUUGGUUUAAGGCGCAAGACUUUAAUUUAUCACUACGAAAUCUUGAGAUCCGGCGUUCGACUCGCCCCCGGGAGCUUUUUUCCUCGAGCAA [G65C A89C]
CUCUCGGUAGCCAAGUUGGUUUAAGGCGCAAGACUUUAAUUUAUCACUACGAAAUCUUGAGAUCAGGCGUUCGACUCGCCCCCGGGAUAUUUUUUCCUCGAGCAA [G65A G88U]
CUCUCGGUAGCCAAGUUGGUUUAAGGCGCAAGACUUUAAUUUAUCACUACGAAAUCUUGAGAUCGAGCGUUCAACUCGCCCCCGGUAGAUUUUUUCCUCGAGCAA [G66A G73A G86U]
CUCUCGGUAGCCAAGUUGGUUUAAGGCGCAAGACUUUAAUUUAUCACUACGAAAUCUUGAGAUCCGGCGUUCGACUCGCCCCCGAGCGAUUUUUUCCUCGAGCAA [G65C G85A A87C]
CUCUCGGUAGCCAAGUUGGUUUAAGGCGCAAGACUUUAAUUUAUCACUACGAAAUCUUGAGAUCAGGCGUUCGACUCGCCCCCUGGAGAUUUUUUCCUCGAGCAA [G65A G84U]
CUCUCGGUAGCCAAGUUGGUUUAAGGCGCAAGACUUUAAUUUAUCACUACGAAAUCUUGAGAUCGACCGUUCGACUCGCCCCCGGGAGAUUUUUUCCUCGAGCAA [G66A G67C]
CUCUCGGUAGCCAAGUUGGUUUAAGGCGCAAGACUUUAAUUUAUCACUACGAAAUCUUGAGAUCGAGCGUUCGACUCGGCCCCGGGAGAUUUUUUCCUCGAGCAA [G66A C79G]
CUCUCGGUAGCCAAGUUGGUUUAAGGCGCAAGACUUUAAUUUAUCACUACGAAAUCUUGAGAUCCGGCGUUCGACUCGCCCCCGGGGGAUUUUUUCCUCGAGCAA [G65C A87G]
CUCUCGGUAGCCAAGUUGGUUUAAGGCGCAAGACUUUAAUUUAUCACUACGAAAUCUUGAGAUCGACCGUUCGACUCACCGCCGGGAGAUUUUUUCCUCGAGCAA [G66A G67C G78A C81G]
CUCUCGGUAGCCAAGUUGGUUUAAGGCGCAAGACUUUAAUUUAUCACUACGAAAUCUUGAGAUCCGGCGUUCGACUCACCCCAGAGAGAUUUUUUCCUCGAGCAA [G65C G78A C83A G85A]
CUCUCGGUAGCCAAGUUGGUUUAAGGCGCAAGACUUUAAUUUAUCACUACGAAAUCUUGAGAUCGAGCCUUCGACGCGCCCCCGGGAGAUUUUUUCCUCGAGCAA [G66A G69C U76G]
CUCUCGGUAGCCAAGUUGGUUUAAGGCGCAAGACUUUAAUUUAUCACUACGAAAUCUUGAGAUCCGGCGUUCGACUCGCCACCGGGAGAUUUUUUCCUCGAGCAA [G65C C81A]
CUCUCGGUAGCCAAGUUGGUUUAAGGCGCAAGACUUUAAUUUAUCACUACGAAAUCUUGAGAUCCGGCGUUCGACUCGCCCCCCGGAGAUUUUUUCCUCGAGCAA [G65C G84C]
CUCUCGGUAGCCAAGUUGGUUUAAGGCGCAAGACUUUAAUUUAUCACUACGAAAUCUUGAGAUCCGGCGUUCGACUCGCCCCCUGGAGAUUUUUUCCUCGAGCAA [G65C G84U]
CUCUCGGUAGCCAAGUUGGUUUAAGGCGCAAGACUUUAAUUUAUCACUACGAAAUCUUGAGAUCAGGCGUUCGACUCCCCCCCGGGAGAUUUUUUCCUCGAGCAA [G65A G78C]
CUCUCGGUAGCCAAGUUGGUUUAAGGCGCAAGACUUUAAUUUAUCACUACGAAAUCUUGAGAUCCGGCGUUCGAAUCGCCCCCGGGACAUUUUUUCCUCGAGCAA [G65C C75A G88C]
CUCUCGGUAGCCAAGUUGGUUUAAGGCGCAAGACUUUAAUUUAUCACUACGAAAUCUUGAGAUCGAUCGUUCGACUCGCCCCCGGGCGAUUUUUUCCUCGAGCAA [G66A G67U A87C]
CUCUCGGUAGCCAAGUUGGUUUAAGGCGCAAGACUUUAAUUUAUCACUACGAAAUCUUGAGAUCUGGCGUUCGACUCGCCAACGGGAGAUUUUUUCCUCGAGCAA [G65U C81A C82A]
CUCUCGGUAGCCAAGUUGGUUUAAGGCGCAAGACUUUAAUUUAUCACUACGAAAUCUUGAGAUCGAACGUUCGACUCGCCCCCGGCAGAUUUUUUCCUCGAGCAA [G66A G67A G86C]
CUCUCGGUAGCCAAGUUGGUUUAAGGCGCAAGACUUUAAUUUAUCACUACGAAAUCUUGAGAUCCGGCGCGCGACUCGCCCCCGGGAGAUUUUUUCCUCGAGCAA [G65C U70C U71G]
CUCUCGGUAGCCAAGUUGGUUUAAGGCGCAAGACUUUAAUUUAUCACUACGAAAUCUUGAGAUCGAGCGUUCGACUCGCCCCCGGGAGAUUUUUUCCUCGAGCAA [G66A]
CUCUCGGUAGCCAAGUUGGUUUAAGGCGCAAGACUUUAAUUUAUCACUACGAAAUCUUGAGAUCCGGCGUUCGACUCGACCCCGGGAAAUUUUUUCCUCGAGCAA [G65C C79A G88A]
CUCUCGGUAGCCAAGUUGGUUUAAGGCGCAAGACUUUAAUUUAUCACUACGAAAUCUUGAGAUCUGGCGUUCGACUCGCCCCCGGGAGAUUUUUUCCUCGAGCAA [G65U]
CUCUCGGUAGCCAAGUUGGUUUAAGGCGCAAGACUUUAAUUUAUCACUACGAAAUCUUGAGAUCCGGCGUUCGACUCGCCCCCGGGAGAUUUUUUCCUCGAGCAA [G65C]
CUCUCGGUAGCCAAGUUGGUUUAAGGCGCAAGACUUUAAUUUAUCACUACGAAAUCUUGAGAUCUGGCGUUCGACUCGCCCCAGGGAGAUUUUUUCCUCGAGCAA [G65U C83A]
CUCUCGGUAGCCAAGUUGGUUUAAGGCGCAAGACUUUAAUUUAUCACUACGAAAUCUUGAGAUCGAGCGUUCGACUCGCCACCGGGAGAUUUUUUCCUCGAGCAA [G66A C81A]
CUCUCGGUAGCCAAGUUGGUUUAAGGCGCAAGACUUUAAUUUAUCACUACGAAAUCUUGAGAUCCGGCGUUCCACUAGCCCCCGGGAGAUUUUUUCCUCGAGCAA [G65C G73C C77A]
CUCUCGGUAGCCAAGUUGGUUUAAGGCGCAAGACUUUAAUUUAUCACUACGAAAUCUUGAGAUCCGGCGUUCGACUCGCCCCCGUGAGAUUUUUUCCUCGAGCAA [G65C G85U]
CUCUCGGUAGCCAAGUUGGUUUAAGGCGCAAGACUUUAAUUUAUCACUACGAAAUCUUGAGAUCCGGCGUUCGACUCGCCCCCGAGAGAUUUUUUCCUCGAGCAA [G65C G85A]
CUCUCGGUAGCCAAGUUGGUUUAAGGCGCAAGACUUUAAUUUAUCACUACGAAAUCUUGAGAUCGAGCGUUCGACUAGCCCCCGGGAGAUUUUUUCCUCGAGCAA [G66A C77A]
